# Reference: the supplement of paper PMC12355420
# Structures can show the parent of a compound that is named as a salt. This is one part of the list. Repeats are few or missing, and single values can be far off.
# System: HeLa VPS33A reporter cells
# Test: relative cell viability (CellMask signal) vs DMSO (fraction of DMSO); HeLa model of a glycosaminoglycan (GAG) storage disease; KI is knock-in and KO knock-out; SDC1 is syndecan 1; higher = less cytotoxic
# Conditions: 50 µM; 24 h
# 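Note: primary screen of an FDA-approved drug library in HeLa reporter cells in 96-well format, CellMask signal normalized to DMSO-treated wells set as 1, under 0.5 deemed highly cytotoxic.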
row,SMILES,relative cell viability
1,CC/C=C\C/C=C\C/C=C\C/C=C\C/C=C\CCCC(=O)O [Eicosapentaenoic Acid],0.202
2,COc1cccc2c1C(=O)c1c(O)c3c(c(O)c1C2=O)C[C@@](O)(C(=O)CO)C[C@@H]3O[C@H]1C[C@H](N)[C@@H](O)[C@H](C)O1 [Epirubicin HCl],0.00308
3,CN(C(=O)CN(CCO)CC(=O)N(C)C(C)(C)Cc1ccccc1)C(C)(C)Cc1ccccc1 [Oxethazaine],0.00936
4,N#Cc1ccc2[nH]cc(CCCCN3CCN(c4ccc5oc(C(N)=O)cc5c4)CC3)c2c1 [Vilazodone Hydrochloride],0.427
5,COc1ccc(-c2oc3cc(OC)c(OC)c(O)c3c(=O)c2OC)cc1O [Vitexicarpin],0.495
6,CC1(C)CCC(c2ccc(Cl)cc2)=C(CN2CCN(c3ccc(C(=O)NS(=O)(=O)c4ccc(N[C@H](CCN5CCOCC5)CSc5ccccc5)c(S(=O)(=O)C(F)(F)F)c4)cc3)CC2)C1 [ABT-263 (Navitoclax)],0.00408
7,COC(=O)C1=C(C)NC(C)=C(C(=O)OCCN(C)Cc2ccccc2)C1c1cccc([N+](=O)[O-])c1 (stereo unspecified) [Nicardipine HCl],0.0255
8,CCCCCCCCCCCCCCCC[N+](C)(C)CCN(Cc1ccc(OC)cc1)c1ncccn1 [Thonzonium Bromide],0.0677
9,CCCC(C(=O)OCCN(CC)CC)(c1ccccc1)c1ccccc1 [SKF 525A (hydrochloride)],0.00366
10,CC(C)OC(=O)CCC/C=C\C[C@@H]1[C@@H](CC[C@@H](O)CCc2ccccc2)[C@H](O)C[C@@H]1O [Latanoprost],0.00421
11,C[C@H]1O[C@@H](O[C@H]2CC[C@@]3(C)[C@@H](CC[C@]4(C)[C@@H]3C=C[C@]35OC[C@@]6(CCC(C)(C)C[C@H]63)[C@@H](O)C[C@]54C)[C@]2(C)CO)[C@H](O)[C@@H](O[C@@H]2O[C@H](CO)[C@@H](O)[C@H](O)[C@H]2O)[C@H]1O [Saikosaponin A],0.00636
